The list shows a part of the results. One pool of 16,384 single-stranded DNAs met each Rep nickase domain in vitro at 3 µM enzyme and 37 °C for 1 h; the strands have 90 letters, of which the middle is given. Values are log2 of uncut reads against the no-enzyme pool; uncut sequences lie near 0, cut ones below; no hit call is given. Reads are scaled to the total; where an enzyme cuts many sequences, the uncut ones exceed 0.
What was measured:
Assay in all cases: uncleaved DNA left, log2 of reads against the no-enzyme library (log2 ratio); higher = less cleavage (more negative = more Rep cleavage of the k-mer); sequences stand for … in CTCGTCCG…ACCGGAGA
[1] = system: T1, Rep nickase domain of Muscovy duck circovirus
T1 sequence (protein, residues 1-111, tag omitted): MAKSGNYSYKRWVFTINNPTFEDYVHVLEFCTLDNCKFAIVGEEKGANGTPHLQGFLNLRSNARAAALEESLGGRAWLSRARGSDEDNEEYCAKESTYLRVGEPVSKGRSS
Protocol: (§1)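 A pool of 90-nt single-stranded DNAs with seven random bases just before the constant AC of the nick site (name = the seven bases) was cut by 3 µM recombinant His6-SUMO-tagged Rep nickase domain (300 nM DNA, 50 mM HEPES pH 8.0, 50 mM NaCl, 1 mM MnCl2, 1 h, 37 °C, three replicates). Uncut DNA was amplified and sequenced.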

[2] = system: T2, Rep nickase domain of banana bunchy top virus
T2 sequence (protein, residues 1-94, tag omitted): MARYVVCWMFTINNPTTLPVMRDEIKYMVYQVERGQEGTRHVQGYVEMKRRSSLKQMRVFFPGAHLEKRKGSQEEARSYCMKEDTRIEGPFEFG
Protocol: as §1

[3] = system: T3, Rep nickase domain of cabbage leaf curl virus
T3 sequence (protein, residues 1-116, tag omitted): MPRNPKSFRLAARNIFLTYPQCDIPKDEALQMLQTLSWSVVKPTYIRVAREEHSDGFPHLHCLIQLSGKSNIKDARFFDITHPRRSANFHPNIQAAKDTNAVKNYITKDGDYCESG
Protocol: as §1

[4] = system: T4, Rep nickase domain of chickpea chlorotic dwarf virus
T4 sequence (protein, residues 1-124, tag omitted): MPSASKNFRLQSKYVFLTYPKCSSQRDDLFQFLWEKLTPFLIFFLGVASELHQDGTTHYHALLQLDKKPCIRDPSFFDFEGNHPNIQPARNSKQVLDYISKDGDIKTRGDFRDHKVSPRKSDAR
Protocol: as §1

[5] = system: T5, Rep nickase domain of faba bean necrotic yellows virus
T5 sequence (protein, residues 1-98, tag omitted): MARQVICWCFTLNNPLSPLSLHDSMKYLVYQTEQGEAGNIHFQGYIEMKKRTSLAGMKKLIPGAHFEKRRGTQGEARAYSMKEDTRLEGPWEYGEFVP
Protocol: as §1

[6] = system: T6, Rep nickase domain of maize striate mosaic virus
T6 sequence (protein, residues 1-117, tag omitted): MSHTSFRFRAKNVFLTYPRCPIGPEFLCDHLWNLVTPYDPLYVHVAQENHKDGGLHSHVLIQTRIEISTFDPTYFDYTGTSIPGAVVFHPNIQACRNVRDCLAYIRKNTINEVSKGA
Protocol: as §1

[7] = system: T7, Rep nickase domain of porcine circovirus 2
T7 sequence (protein, residues 2-116, tag omitted): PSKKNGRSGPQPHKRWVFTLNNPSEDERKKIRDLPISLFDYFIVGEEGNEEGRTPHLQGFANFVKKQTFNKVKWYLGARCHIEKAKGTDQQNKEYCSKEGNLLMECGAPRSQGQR
Protocol: as §1

[8] = system: T8, Rep nickase domain of tomato golden mosaic virus
T8 sequence (protein, residues 1-124, tag omitted): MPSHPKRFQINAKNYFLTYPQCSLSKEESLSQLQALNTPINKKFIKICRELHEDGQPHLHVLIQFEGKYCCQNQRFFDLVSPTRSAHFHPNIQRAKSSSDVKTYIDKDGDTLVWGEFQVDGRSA
Protocol: as §1

[9] = system: T9, Rep nickase domain of tomato yellow leaf curl virus
T9 sequence (protein, residues 1-136, tag omitted): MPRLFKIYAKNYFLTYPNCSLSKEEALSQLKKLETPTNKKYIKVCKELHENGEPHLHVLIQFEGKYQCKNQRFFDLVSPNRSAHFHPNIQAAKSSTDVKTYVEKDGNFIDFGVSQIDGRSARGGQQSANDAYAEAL
Protocol: as §1

[10] = system: T10, Rep nickase domain of wheat dwarf virus
T10 sequence (protein, residues 1-137, tag omitted): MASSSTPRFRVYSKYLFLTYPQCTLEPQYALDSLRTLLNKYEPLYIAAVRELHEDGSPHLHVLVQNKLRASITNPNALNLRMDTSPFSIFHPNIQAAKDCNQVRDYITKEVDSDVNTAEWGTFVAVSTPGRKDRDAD
Protocol: as §1

Sequence	uncleaved DNA left (log2) [1]	uncleaved DNA left (log2) [2]	uncleaved DNA left (log2) [3]	uncleaved DNA left (log2) [4]	uncleaved DNA left (log2) [5]	uncleaved DNA left (log2) [6]	uncleaved DNA left (log2) [7]	uncleaved DNA left (log2) [8]	uncleaved DNA left (log2) [9]	uncleaved DNA left (log2) [10]
AAACTTA	-0.00127	0.118	-0.152	-2.65	0.116	-0.433	-0.141	0.131	0.153	-0.0943
CGCTCTT	-1.66	-0.204	-0.163	-1.64	0.00719	-0.184	-2.45	-0.116	-0.00811	-0.142
GCATGAT	-0.278	-0.0263	-0.046	0.197	0.099	0.187	-0.92	0.0383	0.0513	0.0604
AAATAGA	0.0936	0.0325	-0.31	-0.763	0.0543	-1.04	-0.0186	0.137	0.0538	0.0484
GTTGGCT	0.137	0.18	0.347	0.691	0.0829	0.839	0.228	0.198	0.192	0.0771
TCACTTT	-0.0381	-0.201	-0.284	-2.91	-0.135	-0.759	-0.389	-0.137	-0.0457	-0.318
CCCAGTT	0.0898	-0.128	-0.209	-1.97	-0.0296	-0.506	-0.155	-0.0165	0.00387	-0.0558
GTAACAC	0.132	0.147	0.259	0.725	0.0746	1.52	0.141	0.0939	0.192	0.209
CATTCGA	-0.00649	-0.0116	-0.626	-0.165	0.0866	-1.05	0.0873	-0.116	0.0972	-0.0972
ACGCGCC	-0.138	-0.291	-0.58	-0.77	-0.0695	-0.95	-0.0983	-0.163	-0.228	-0.276
GTGTCAT	0.0121	0.0407	0.539	1.41	-0.122	2.05	0.0933	-0.0028	0.0588	0.17
CATCACG	-0.0465	0.00166	-0.921	-0.107	-0.0673	-1.11	0.117	-0.0847	-0.0622	-0.074
GATTGGT	-2.55	-2.56	-0.11	-0.214	-0.142	-0.432	-3.03	-0.063	0.105	-0.022
TGGGCGT	0.167	0.0516	0.638	1.32	0.148	1.14	0.234	0.115	0.108	0.249
TATCCGG	0.0148	-0.00218	0.442	1.39	-0.074	1.79	0.01	-0.00146	-0.0909	-0.0224
TGGAAAC	0.00552	0.109	0.515	1.13	-0.0604	1.51	0.226	0.101	0.12	0.245
ACACTTT	0.0488	0.0397	-0.469	-2.76	-0.0493	-0.754	-0.369	-0.0178	-0.131	-0.0681
ATCTACA	-0.0886	-0.0506	-0.328	-2.44	-0.0153	-0.671	-0.269	-0.0805	-0.0356	-0.119
TAAAGTC	0.064	-0.0573	-2.22	-2.87	0.0588	-1.34	0.0911	-0.189	-0.0253	-0.762
GGGCCAA	-0.119	0.0445	0.856	2	-0.154	2.22	0.19	0.0036	0.0121	0.0731

Sequence	uncleaved DNA left (log2) [1]	uncleaved DNA left (log2) [2]	uncleaved DNA left (log2) [3]	uncleaved DNA left (log2) [4]	uncleaved DNA left (log2) [5]	uncleaved DNA left (log2) [6]	uncleaved DNA left (log2) [7]	uncleaved DNA left (log2) [8]	uncleaved DNA left (log2) [9]	uncleaved DNA left (log2) [10]
GTCGAGG	0.164	0.291	0.507	1.14	0.21	1.95	0.229	0.383	0.214	0.237
TAGCCTT	0.0339	-0.238	-0.933	-2.85	-0.0584	0.0463	-3.23	-0.282	0.0399	-0.114
CATGCAT	-0.13	-0.135	-0.545	-1.06	-0.111	-1.27	-0.0582	-0.187	-0.129	-0.185
GATGCTG	-0.164	-0.15	0.0972	1.2	-0.0258	1.26	0.106	-0.0516	-0.175	-0.0577
TGTTGAA	-0.0117	-0.0244	-0.00334	-0.131	-0.103	-0.114	-0.0809	0.0553	-0.0049	-0.121
ACGTCTA	-0.0192	-0.106	-0.228	-1.09	-0.00624	-0.535	-0.285	-0.0904	-0.171	-0.0473
ATAGTCC	0.092	0.0555	0.121	-0.465	-0.0675	-0.436	-0.108	0.0298	0.0151	0.0188
GATGTAA	0.0746	0.113	0.357	0.617	0.135	1.4	0.0915	0.147	0.0836	0.0552
TAGCACT	-0.0707	-0.107	-0.519	-2.85	-0.187	0.652	-3.28	-0.24	-0.108	-0.14
CACCGCT	-0.102	-0.0342	-0.421	-2.02	0.0611	-1.05	-0.395	-0.0523	-0.0281	-0.0111
GTCGTTT	0.101	0.0931	0.428	0.64	0.0917	1.53	0.0274	-0.0403	0.0432	0.0194
GATATCT	0.0525	-0.336	0.22	-1.3	0.0929	0.718	-0.593	0.08	0.15	0.0936
GACTCGC	0.0247	0.0884	-0.0214	0.0456	0.135	-0.549	-0.084	-0.07	0.0173	0.0229
TAGCGTG	-0.11	0.00765	-0.318	0.0314	-0.072	0.149	0.0558	-0.0511	-0.0729	-0.0663
CCGAGGC	0.00787	-0.0314	0.198	0.501	-0.0606	-0.0823	-0.0523	0.00409	-0.0639	-0.0764
CGGGCCG	-0.0282	0.0387	-0.563	-0.163	0.036	-0.288	0.0955	0.0592	0.0223	-0.0519
CTATAGA	0.0646	0.0873	-0.163	-0.268	0.0951	-1.15	0.0507	0.0323	0.0696	0.158
TGCCTGG	0.0737	-0.0126	0.129	0.37	0.0292	0.288	0.145	0.0125	-0.00495	0.0189
TCCGGTA	0.111	-0.0622	0.285	0.372	-0.0198	0.922	0.119	0.0119	-0.00117	-0.019
CTTCTTC	-0.0763	-0.0793	-0.129	-0.636	-0.0231	-0.899	0.00186	-0.234	-0.207	0.0172

Sequence	uncleaved DNA left (log2) [1]	uncleaved DNA left (log2) [2]	uncleaved DNA left (log2) [3]	uncleaved DNA left (log2) [4]	uncleaved DNA left (log2) [5]	uncleaved DNA left (log2) [6]	uncleaved DNA left (log2) [7]	uncleaved DNA left (log2) [8]	uncleaved DNA left (log2) [9]	uncleaved DNA left (log2) [10]
TTCAGGC	0.0431	0.00786	0.298	0.67	0.0767	0.455	0.104	0.0377	0.032	-0.0507
ATCCTTT	-0.127	-0.214	-0.102	-2.23	-0.0295	-0.723	-1.49	-0.31	-0.174	-0.122
GGCGACC	-0.0362	0.0619	0.2	0.951	-0.00156	0.934	0.0633	0.005	0.0591	0.0543
CTCAGAG	-0.00411	0.00827	-0.66	-0.465	0.164	-1	0.0857	0.0015	0.0594	0.00318
GGGGCAA	0.0399	0.105	0.905	2.11	0.0398	2.31	0.309	0.15	-0.0683	0.152
TAGAAAG	0.114	0.168	-0.721	-0.607	0.109	-1.04	0.13	0.106	0.0954	0.0503
CACGAGC	-0.0533	-0.00831	0.107	0.582	-0.182	-0.128	-0.0381	0.0403	-0.0222	-0.026
TATGGTC	0.0387	-0.069	0.349	0.204	0.0206	0.352	0.0519	0.0229	0.0547	-0.0215
ATCCAGT	0.0321	0.0914	-0.204	-0.67	0.0135	-0.895	-0.0309	0.0863	-0.086	0.0812
GATCAGT	0.132	0.0585	0.23	0.343	0.121	0.42	-0.0552	0.0211	0.194	0.178
AATGGCT	0.0231	0.105	0.111	0.588	0.0942	0.502	0.13	0.102	-0.0575	-0.0213
GCGCGCC	-0.033	-0.231	-0.257	-0.121	-0.212	-0.29	-0.0813	-0.281	-0.249	-0.17
CACCTGG	-0.138	-0.0258	-0.243	-0.0759	-0.0498	-0.743	0.0188	0.0253	0.00431	0.02
ACCAGCA	-0.0148	0.0517	-0.538	-0.733	0.122	-1.05	0.0843	0.000932	0.18	0.00511
TGCTCAT	0.00879	0.123	0.253	-0.0593	0.211	-0.0129	-0.41	-0.124	0.119	0.148
CGGGAGA	0.136	0.1	0.873	1.64	0.0229	1.79	0.212	0.0733	0.0655	0.168
TTTGGCT	0.0545	0.00065	-0.329	-1.05	0.0611	-0.943	-0.0128	-0.117	-0.0239	-0.062
CGGTTCA	-0.125	-0.147	0.0885	-0.111	0.0241	0.288	-0.0886	0.027	0.0168	0.101
GCTAAAC	-0.0685	0.14	0.0371	0.375	-0.0562	0.087	0.126	-0.0957	-0.0249	0.0173
CTATAAG	0.0859	0.0527	-0.711	0.0329	0.0762	-0.947	0.139	0.167	0.198	0.00958
